Assay results from PubChem BioAssay AID686970 (National Center for Advancing Translational Sciences (NCATS), 2013).
The campaign covered roughly 360,000 compounds. About 6,000 (1.7%) were called active. The inconclusive results got no clear call from the source; some entries with a clear call stand among them for comparison. Calls follow the shape of the dose curve; as a rule, active = well fitted cell-killing curve with a large enough effect; inconclusive = small, poorly fitted or top-dose-only effect, or effect the other way; inactive = flat fitted curve, though single readings scatter. No potency is given beside an inconclusive call; the fits are too rough.

test: qHTS for induction of synthetic lethality in tumor cells producing 2HG: qHTS for the HT-1080-NT fibrosarcoma cell line; settings: HT-1080-NT fibrosarcoma viability, CellTiter-Glo ATP luminescence, 48 h; activity, negative = less viability: at 46.1 µM (top of the series) unless noted;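 also: NT is the 2HG producing partner of a matched IDH1 knockdown line; nearly all actives have a fitted effect of over 55% in size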;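 as to activity, negative = less viability: 0% = DMSO-treated cells and -100% = media-only wells without cells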
How it was run: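 Toxicity toward the 2HG-producing NT line was scored as %Activity, normalised to DMSO and no-cell wells, from CellTiter-Glo luminescence after 48 hours' treatment.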
Potency is read from the fitted curve at half-maximal effect; tags tell the direction and shape of the fitted curve.

Compound | Potency | activity, negative = less viability
Cc1onc(-c2ccccc2Cl)c1C(=O)N(C)C1CCCCC1 | inactive | 
COC(C[C@H](O)[C@@H](C)[C@H](O)COCc1ccccc1)OC | inactive | 
CCc1nnc(NC(=O)c2ccc(-c3ccc(Cl)cc3)o2)s1 | inconclusive [rising, partial curve, poor fit] | 
Cc1nn(C(=O)c2ccc3c(c2)OCO3)c(N)c1-c1ccccc1 | inconclusive [rising, single point] | 
Cc1cccc(NC(=S)N2CCC(c3nc4ccccc4s3)CC2)c1 | inconclusive [cytotoxic, single point] | 
C/C(N)=C(/C#N)C(=O)CSc1nnc(COc2ccccc2Cl)o1 | inconclusive [cytotoxic, single point] | 
CC1Cc2cc(-c3csc(NC(=O)Cc4ccccc4)n3)ccc2N1S(C)(=O)=O (centres undefined) | inconclusive [cytotoxic, single point] | 
O=c1[nH]c(NCCO)nc2c1C1(CCCCC1)Cc1ccccc1-2 | inconclusive [cytotoxic, single point] | 
Cc1ccc(C)c(C(=O)c2ccccc2NC(=O)c2ccccn2)c1 | inconclusive [cytotoxic, single point] | 
[O-]c1c[n+](-c2ccccc2)no1 | inconclusive [rising, partial curve, poor fit] | 
Cc1nn(C)c(C)c1NC(=O)CSc1nc(C2CC2)nc2c1cnn2-c1ccccc1 | inactive | 
O=C(Cc1cccs1)Nc1nc2c(s1)CCCC2 | inconclusive [cytotoxic, partial curve] | 
CCc1cc(C(=O)N=Nc2c(O)[nH]c3c(Br)cc(Br)cc23)c2ccccc2n1 | inconclusive [cytotoxic, single point] | 
COc1ccc(N2CCN(C(=S)NC(=O)c3cccs3)CC2)c([N+](=O)[O-])c1 | inconclusive [cytotoxic, partial curve, poor fit] | 
Cc1c(C(=O)NCc2cccc(C(F)(F)F)c2)sc(=O)n1Cc1ccc(F)cc1 | inconclusive [cytotoxic, single point] | 
O=c1c([N+](=O)[O-])cccn1Cc1ccc(F)cc1Cl | active: 14.6 µM | 
C#Cc1ccc([C@@H]2C=C(C(=O)N3CCN(Cc4ccc5c(c4)OCO5)CC3)O[C@H](OCC)[C@H]2CCCO)cc1 | inconclusive [cytotoxic, single point] | 
COCCCn1c(O)c(/C=C2\N=C(C#N)C(=Nc3ccc(C)cc3)O2)sc1=S | inconclusive [cytotoxic, partial curve] | 
COc1cccc(/C=C/c2ccc3ccccc3n2)c1OC(C)=O | inconclusive [cytotoxic, partial curve] | 
COc1ccc(OCCN2CCC(C(=O)NC(c3ccc(F)cc3)c3ccc4ccccc4n3)CC2)cc1 (centres undefined) | inconclusive [cytotoxic, single point] | 
O=C(COc1ccc(Oc2ccccc2)cc1)NC1CCS(=O)(=O)C1 (centres undefined) | inconclusive [cytotoxic, single point] | 
COc1ccc(S(=O)(=O)Nc2cc(C)c(O)c(S(=O)(=O)c3ccccc3)c2)cc1 | inactive | 
Cn1cc(/C=C2\SC(=O)N(c3ccc(O)cc3)C2=O)c2ccccc21 | inconclusive [cytotoxic, single point] | 

Compound | Potency | activity, negative = less viability
COc1ccc2sc(-c3ccc(SC)cc3)c(C#CC(C)(C)O)c2c1 | inconclusive [cytotoxic, single point] | 
Cc1cc(NC(=O)Cc2ccccc2)c2ccccc2n1 | inconclusive [cytotoxic, single point] | 
NC(=O)Cn1c(S(=O)(=O)Cc2ccccc2)nc2ccccc21 | inconclusive [rising, partial curve] | 
COc1cc2c(cc1CNC[C@H]1O[C@@H](n3cc(C)c(=O)[nH]c3=O)C[C@@H]1O)OCO2 | inconclusive [rising, single point] | 
C/C=C/c1ccc(OCCCNC2CCCC2)c(OC)c1 | inconclusive [cytotoxic, single point] | 
CCOC(=O)CCS(=O)(=O)c1nc(-c2ccccc2)cc(C(F)(F)F)n1 | inconclusive [cytotoxic, partial curve] | 
Cc1cc(C)cc(CC(=O)N2CCC2(C)C(=O)NS(=O)(=O)c2ccccc2)c1 (centres undefined) | inconclusive [rising, partial curve] | 
COc1ccc(N(C)S(=O)(=O)c2cccc(C(=O)NCc3ccc(C)cc3)c2)cc1 | inactive | 
O=C(Nc1ccccc1C(=O)OCC(=O)c1c[nH]c2ccccc12)c1ccco1 | inconclusive [cytotoxic, partial curve, poor fit] | 
Cc1ccc(-c2nc(Nc3ccc(O)cc3)c3ccccc3n2)cc1 | active: 20.6 µM | 
O=C(O)CCCN1C(=O)/C(=C/c2ccc(-c3nc4ccccc4s3)o2)SC1=S |  | inconclusive: 30.2%
COCCCN=C(c1ccco1)n1c(=S)nc(-c2ccco2)n(CCCOC)c1=S | active: 5.62 µM | 
O=C(NC1CCCC1)C(c1ccccn1)N(Cc1ccccc1F)C(=O)c1csnn1 (centres undefined) | inactive | 
Cc1ccc2nc(Cl)c3cc(C(=O)N(CCN(C)C)Cc4ccco4)sc3c2c1 | inconclusive [cytotoxic, partial curve, poor fit] | 
CCCCNC(=O)c1cn(C)c2ccc(S(=O)(=O)N3CC(C)CC(C)C3)cc2c1=O (centres undefined) | inactive | 
Cc1ccc(S(=O)(=O)NC(=O)C2(C)CCN2C(=O)CC2CCCC2)nc1 (centres undefined) | inconclusive [rising, single point] | 
CCn1cc(C(=O)OCC(=O)Nc2ccc(S(=O)(=O)N3CCCC3)cc2)c(=O)c2ccc(C)nc21 | inactive | 
CCCOc1cc(CN2CCCCC2)cc(C(C)=O)c1 | inactive | 
O=C(N=Nc1c(O)[nH]c2ccccc12)c1ccc2c(c1)OCO2 | inactive | 
O=C(NCCCN1CCCC1)c1cc(Sc2ccc(F)cc2)nc2ccccc12 | active: 20.6 µM | 
O=S(=O)(Nc1ccccc1)c1ccc(Oc2ncc(C(F)(F)F)cc2Cl)cc1 | inconclusive [cytotoxic, single point] | 
CCNc1nc(-c2sc(NC(=O)C(C)(C)C)nc2C)c(-n2cc(-c3ccccc3)nn2)s1 | inconclusive [cytotoxic, single point] | 
CC1CCCCC1NC(=O)Cn1nnc(-c2ccc(Cl)cc2)n1 (centres undefined) | inconclusive [rising, single point] | 

Compound | Potency | activity, negative = less viability
Cc1ccc(NC(=O)C(C)c2cccc(C(=O)c3ccccc3)c2)cc1O (centres undefined) | inactive | 
O=C(CN1CCN(Cc2ccc(F)cc2)C1=O)NC1CCCC1 | inactive | 
COc1cc([C@@H]2c3cc4c(cc3[C@@H](O[C@@H]3O[C@@H]5CO[C@@H](C)O[C@H]5[C@H](O)[C@H]3O)[C@H]3COC(=O)[C@H]23)OCO4)cc(OC)c1O | inactive | 
COc1ccc(-n2cnc3cc(NS(=O)(=O)c4ccccc4)ccc32)cc1 | inconclusive [cytotoxic, single point] | 
Cc1ccc(O)c(/C=N/NC(=O)Cc2ccc(Cl)cc2)c1 | inconclusive [cytotoxic, partial curve] | 
CCN(CC)CC#CCOC(c1ccccc1)c1ccccc1 | inconclusive [cytotoxic, single point] | 
O=C(Nc1nc(-c2ccccn2)cs1)c1cc(Cl)ccc1[N+](=O)[O-] | inconclusive [cytotoxic, full curve] | 
NC(c1csc(Nc2cc(NCCCO)ncn2)n1)c1ccccc1Cl (centres undefined) | inconclusive [cytotoxic, single point] | 
CCCNc1nc(N2CCCC2)nc(N2CCCC2)n1 | inconclusive [cytotoxic, partial curve] | 
COc1cc([N+](=O)[O-])ccc1NC(=S)NCc1ccccn1 | inactive | 
Cc1cc(C)c(SSc2nnnn2-c2ccccc2)c(C)c1 | inactive | 
c1ccc(CSc2ccc(-c3ccccn3)nn2)nc1 | inconclusive [cytotoxic, single point] | 
Cc1[nH]n(-c2ccccc2)c(=O)c1/C=N/NC(=O)c1cccc([N+](=O)[O-])c1 | inconclusive [cytotoxic, single point] | 
Cc1ccc(NCc2nnc(SCC(=O)Nc3ncc(C)s3)n2Cc2ccco2)c(C)c1 | inconclusive [cytotoxic, partial curve] | 
COCc1cc(=O)[nH]c(Nc2nc(C)c3ccccc3n2)n1 | inconclusive [cytotoxic, single point] | 
CSc1nc(N(C)NC(=O)c2ccc(F)cc2)c2ccccc2n1 | inconclusive [cytotoxic, full curve] | 
CC(C)c1cc(C(=O)OCC(=O)NC(=O)NCc2ccco2)c(O)c(C(C)C)c1 | active: 23.1 µM | 
Cc1nc(N2CCN(Cc3ccc4c(c3)OCO4)CC2)c2cc(-c3ccccc3)sc2n1 | inactive | 
FC(F)(F)c1cccc(NC(=S)NCCN2CCOCC2)c1 | inactive | 
COC(=O)c1nc(NC(=O)c2cc(OC)c(OC)c(OC)c2)n[nH]1 | inactive | 
COc1cccc(-c2nc(=S)c3c(n2Cc2ccco2)CCCC3)c1 | inconclusive [cytotoxic, single point] | 
CNC(=S)N(CCc1cccc(C)c1)Cc1cc2cc(OC)c(OC)cc2[nH]c1=O | inactive | 
O=C(CN1CCN(c2ccccn2)CC1)N1c2ccccc2CCc2ccccc21 | inactive | 
